Hit rate of the full screen: of about 45,000 compounds, about 65 (0.1%) were called active. Calls come from the whole dose curve; as a rule, active = well fitted activation curve with a large enough effect; inconclusive = small, poorly fitted or top-dose-only effect; inactive = no such curve, though single readings can be large or run the other way. Some of the results follow.
molecular target: Galactocerebrosidase (Homo sapiens) (UniProt P54803); assay: A Novel Cell-Based Assay to Identify Small Molecules for B -Galactocerebrosidase; conditions: 145M-Twi-hGALC-G270D cells (Twitcher mouse brain line with human GALC G270D), HMU-beta-Gal fluorescence, 48 h; series mostly up to 57.5 µM; activation: at the top concentration; note: 0% is about no effect; nearly all actives have a fitted effect of over 65% in size
Chain of UniProt P54803 (P54803 whole entry, looked up): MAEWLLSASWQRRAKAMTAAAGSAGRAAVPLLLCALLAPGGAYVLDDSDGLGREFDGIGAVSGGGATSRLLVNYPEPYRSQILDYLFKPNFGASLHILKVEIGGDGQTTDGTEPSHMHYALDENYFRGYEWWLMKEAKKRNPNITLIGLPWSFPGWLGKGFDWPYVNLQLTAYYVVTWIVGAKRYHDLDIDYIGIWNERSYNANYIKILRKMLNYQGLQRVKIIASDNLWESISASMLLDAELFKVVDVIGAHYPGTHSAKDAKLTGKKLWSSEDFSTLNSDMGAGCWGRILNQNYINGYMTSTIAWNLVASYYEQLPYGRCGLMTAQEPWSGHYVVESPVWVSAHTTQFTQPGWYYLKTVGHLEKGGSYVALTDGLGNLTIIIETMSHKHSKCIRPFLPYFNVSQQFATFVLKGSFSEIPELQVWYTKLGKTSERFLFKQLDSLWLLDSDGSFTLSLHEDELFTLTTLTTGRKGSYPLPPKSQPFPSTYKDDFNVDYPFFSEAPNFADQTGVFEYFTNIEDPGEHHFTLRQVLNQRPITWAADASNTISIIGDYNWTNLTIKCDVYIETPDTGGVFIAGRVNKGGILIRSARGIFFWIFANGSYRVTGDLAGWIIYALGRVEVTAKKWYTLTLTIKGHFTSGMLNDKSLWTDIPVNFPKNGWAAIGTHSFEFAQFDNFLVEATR
How it was run: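 Fluorescence readout: HMU-β-gal cleavage by mutant GALC (0.1 mM final, citrate/phosphate pH 5.2 with 1 mg/mL taurocholate), stopped with carbonate/bicarbonate plus Triton X-100. Cells: murine Twitcher 145M-Twi expressing human G270D GALC; qHTS for activators.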

activation, inactive:
CCOc1ccc(-c2cc3c(=O)n(CC(=O)NCc4ccc(OC)cc4)ccn3n2)cc1 -15.5%
CSc1ccc(CCNC(=O)CCn2c(=O)c3cccn3c3cccnc32)cc1 0.833%
Cc1ccc(OCCSc2nc3ccc(NC(=O)c4ccc5c(c4)OCO5)cc3s2)cc1 -10.8%
CCOC(=O)C1CCCN(C(=O)c2c(C)nn(-c3ccc(F)cc3)c2-n2cccc2)C1 (centres undefined) -4.68%
COc1ccc(NC(=O)c2cc3c(=O)n(C)c4ccccc4c3s2)cc1Cl -4.76%
O=C(Nc1ccc(F)cc1)C1CCN(c2nc3ccccc3n3cccc23)CC1 -16.2%
Cc1nc(-n2nc(C)c(Cc3ccccc3Cl)c2C)sc1C(=O)N1CCC(C)CC1 -16.2%
CCOC(=O)C(CC)Sc1ncnc2sc3c(c12)CCCC3 (centres undefined) -17.9%
O=C(CCn1cccn1)NCc1ccc(Cl)cc1 -12.6%
O=C(NC1(C(F)(F)F)NC(=O)N(CCc2ccccc2)C1=O)c1ccccc1Cl (centres undefined) -16.3%
Cc1cccc(NC(=O)CSc2nnc(N)s2)c1 -17%
Cc1cccc(-n2ncc(C(=O)N3CCc4ccccc4C3)c2C2CCN(C(=O)OC(C)(C)C)CC2)c1 15.6%
Cc1oc2ccc(O)c(CN3CCCCCC3)c2c1C(=O)Nc1cccc(Cl)c1C -18.2%
O=C(NCCc1ccc(Cl)cc1)C(=O)NCC(c1ccco1)S(=O)(=O)c1cccs1 (centres undefined) -4.93%
COC(=O)c1nnn(CC(=O)Nc2cc(F)ccc2F)c1C(=O)OC -11.2%
CSc1ncc2c(n1)-c1ccccc1N(Cc1ccc(F)cc1)S2(=O)=O -5.85%
Cc1c(-c2nsc(NC(=O)c3cccs3)n2)nnn1-c1ccc(Cl)cc1 -10%
N#Cc1c[nH]n2c(NC3CCCCC3)c(-c3ccccc3F)nc12 -16.2%
Cc1nn2c(=O)cc(COC(=O)c3cccc(NC(=O)COc4ccc(C)c(C)c4)c3)nc2s1 -10.9%
CCN(CC)CCCNC(=O)c1ccc2c(c1)N(Cc1c(F)cccc1Cl)C(=O)c1ccccc1S2 -1.55%
O=C(C1CCN(S(=O)(=O)c2cccs2)CC1)N1CCN(c2cccc(Cl)c2)CC1 -12.2%
CCSc1ncc(Cl)c(C(=O)N(Cc2ccccc2Cl)C2CCS(=O)(=O)C2)n1 (centres undefined) -15.6%
Cc1ccc(CN2C(=O)c3ccccc3Sc3ccc(C(=O)NCc4ccco4)cc32)cc1 1.59%
COc1ccc(C(=O)NCC(c2ccc3c(c2)OCO3)N2CCOCC2)cc1 (centres undefined) -1.7%
COc1ccc(C2=NN(S(C)(=O)=O)C(c3cn(-c4ccccc4)nc3-c3cccs3)C2)cc1 (centres undefined) 7.25%
Cc1ccc(S(=O)(=O)N(CC(O)Cn2c3ccccc3c3ccccc32)c2cccc(C(=O)N(C)C)c2)cc1 (centres undefined) -47%
C#CCN1C(=O)C(O)(CC(=O)c2ccc(OC)c(OC)c2)c2cc(Br)ccc21 (centres undefined) -13.9%
Cc1ccc(-c2nc3ccccn3c2Nc2ccc3c(c2)OCCO3)s1 -3.43%
CN(C)CCOC(c1ccc(Cl)cc1)c1ccccn1 (centres undefined) -3.99%
Cc1cc(C)cc(NC(=O)Cn2c(=O)n(C(C)C)c(=O)c3oc4ccccc4c32)c1 -9.7%
O=C(Cc1ccc(NC(=O)N2CCSc3ncccc32)cc1)NCc1ccccc1 -0.766%
Cc1ccc(Oc2nc3c(c(=O)n(Cc4ccccc4)c(=O)n3C)n2C)cc1C -24.3%
CCCn1c(=N)c(C(=O)NCc2cccnc2)cc2c(=O)n3cccc(C)c3nc21 -8.37%
COc1cccc(-c2ccnc3c(-c4ccc(F)cc4)c(C)nn23)c1 -2.93%
Cc1oc2ncnc(N3CCOCC3)c2c1C(=O)N1CCN(c2cccc(C(F)(F)F)c2)CC1 2.96%
CCN(C(=O)C1CCC(CNS(=O)(=O)c2cccc3nsnc23)CC1)c1cccc(C)c1 (centres undefined) -16.5%
CC1(C)CC(=O)c2cc(C(=O)Nc3ccc(Br)cc3)c(=O)[nH]c2C1 -11.2%
CCN(C(=O)C1CCC(CNS(=O)(=O)c2cccc3nsnc23)CC1)c1ccccc1 (centres undefined) -8.46%
COc1ccc(NC(=O)C2=C(C)Nc3ncnn3C2c2ccc(C)o2)cc1 (centres undefined) -18.5%
Cc1ccc(NC(=O)c2ccc(=O)n(CC(=O)Nc3c(C)cc(C)cc3C)n2)cc1 -9.21%
Cc1ccc(COc2ccc3oc(-c4ccccc4)c(C(=O)O)c3c2)cc1 -14%
COc1ccc(OCC(=O)N2CCN(C(=O)c3cc(OC)c(OC)c(OC)c3)CC2)cc1 -18%
COc1ccc(/C=C/C(=O)N2CCC(c3nc4ccccc4o3)CC2)cc1OC -8.91%
CCOc1ccccc1NC(=O)N(C)CCc1c(C)nn(CC)c1C -14.6%
CCOc1ccc(C2N3CC4(C(C)C)CN2CC(C(C)C)(C3)C4=O)cc1OC (centres undefined) -15.7%
O=C(COc1ccccc1)NCC(c1cccs1)S(=O)(=O)c1ccc(Cl)cc1 (centres undefined) -6.87%
CCN(C(=O)Cn1c(SCC(=O)Nc2ccc(OC)cc2)nc2ccccc21)c1cccc(C)c1 -10.1%
CC(C)(C)c1ccc(C(=O)NNc2ncnc3c2cnn3-c2ccccc2)cc1 -19%
O=C1CCc2ccc(OCCCCN3CCN(c4cccc(Cl)c4Cl)CC3)cc2N1 -13%
Cc1cc(C)n2c(Nc3ccccc3C)c(-c3cccs3)nc2n1 -12.8%
COc1cccc(C(=O)Nc2ccc(-n3nncc3-c3ccc(Br)cc3)cc2)c1OC -0.447%
COc1ccc(-n2nc(C(=O)Nc3ccc(Br)cc3C)c3c4ccccc4n(C)c3c2=O)cc1 -7.95%
COc1ccc(C(=O)N2CC(=O)Nc3ccc(C)cc3C2c2ccccc2)cc1OC (centres undefined) -9.07%
CCOc1ccc(C2C=C(c3cccc(OC)c3)Nc3nnnn32)cc1 (centres undefined) -1.99%
COc1ccc2nc3oc(C(=O)Nc4cccc(C(F)(F)F)c4)cc3cc2c1 11.8%
Cc1cc(C)cc(NS(=O)(=O)c2ccc3c(c2)OCC(C(=O)N2CCCC2)O3)c1 (centres undefined) -12.2%
CCOc1ccc(NC(=O)CN(Cc2ccccc2)S(=O)(=O)c2ccc(Cl)cc2)cc1 2.53%
Cc1ccccc1CN1CCc2nc(N3CCN(c4ccccn4)CC3)ncc2C1 -11.5%
Cc1ccc2nc(-c3ccc(C)c(NC(=O)Cc4ccccc4)c3)oc2c1 -2.68%
Cc1cccc(Nc2nc(C)nc(N)c2S(=O)(=O)c2ccccc2)c1 5.7%
Cc1ccc(CNC(=O)CSc2c3c(nc4ccc(Cl)cc24)CCCC3)cc1 6.68%
Cc1c(C2=CCN(S(=O)(=O)c3ccc(Br)cc3)CC2)c2ccccc2n1CC(=O)N1CCCC1 -13.3%
CCOc1ccc(C2C(C(=O)Nc3ccc(OC)cc3)=C(C)Nc3nc(SCc4ccc(Cl)cc4)nn32)cc1 (centres undefined) -6.01%
COc1ccc(N2CCN(CCCNC(=O)c3ccc4nc(CCc5ccccc5)oc4c3)CC2)cc1 -13.7%
COc1ccc(NC(=O)CSc2c3c(nc4ccc(Cl)cc24)CCCC3)cc1Cl -6.42%
Cc1ccccc1NC(=O)CS(=O)(=O)c1cccc2nsnc12 -4.48%
Cc1c(Cl)cccc1NC(=O)c1ccc(NC(=O)N2CCSc3ncccc32)cc1 -6.61%
CCc1c(C)sc2c1CCN(C(=O)Nc1ccccc1C(=O)OC)C2c1ccc(F)cc1 (centres undefined) -13%
O=C(Nc1ccc(Br)cc1)N1CCC(CN2CCCC2)CC1 -0.816%
CCNC(=O)c1c(NC(=O)COc2ccc(F)cc2)sc2c1CCCC2 -8.17%
CCCc1ccc(OCC(=O)Nc2scc(-c3cccs3)c2C(=O)OC)cc1 -7.94%
COc1ccc2c(c1)CC(C(=O)NCCN1CCN(c3cccc(Cl)c3)CC1)CO2 (centres undefined) -8.24%
O=C(c1ccc2c(c1)N(Cc1ccc(F)cc1)CCS2)N1CCN(c2ccccc2)CC1 -7.56%
Cc1nc(Oc2ccccc2C)c2oc3ccccc3c2n1 -10.2%
Cc1ccc(CNC(=O)c2sc3nc4n(c(=O)c3c2C)CCCC4)cc1 -6.97%
NC(=O)NC1NC(=O)NC1=O (centres undefined) -13.9%
CCCCn1c(C2CC(=O)N(c3ccc(OCC)cc3)C2)nc2ccccc21 (centres undefined) -15%
O=C(OCC1CCCO1)c1ccc2c(c1)N(Cc1c(F)cccc1Cl)C(=O)c1ccccc1S2(=O)=O (centres undefined) -1.91%
O=C(O)/C=C\C(=O)O -16.3%
CCc1nnc(NC(=O)c2nc(SCc3ccc(F)cc3)ncc2Cl)s1 -7.68%
CCOc1ccc(OCC)c(NS(=O)(=O)c2ccc3c(c2)CCCN3C(C)=O)c1 -10.3%
Cc1ccc(Cl)cc1N1CCN(C(=O)c2cnc3c(-c4ccc(F)cc4)c(C)nn3c2C)CC1 -9.19%
O=C(Nc1ccccc1C(F)(F)F)C1CCN(c2nnc(-n3cccc3)s2)CC1 -14.9%
Cc1cccc(S(=O)(=O)c2cn(Cc3ccc(F)cc3)c3cc(N4CCOCC4)c(F)cc3c2=O)c1 7.85%
CCC(C(=O)NC1CCCCC1)n1nc(C)c2sc3ccccc3c2c1=O (centres undefined) 1.49%
COc1ccc(S(=O)(=O)N2CCC(c3nnnn3-c3ccccc3)CC2)cc1OC -49.8%
CCN(CC)S(=O)(=O)c1ccc2c(c1)c(=O)c(C(=O)N1CCN(c3cc(C)ccc3C)CC1)cn2C -19.7%
O=C(Cn1cc(SCc2ccc(F)cc2)c2ccccc21)N1CCCC1 -9.34%
Cc1cc(C)c(NC(=O)c2ccc3nc(C(C)C)oc3c2)c(C)c1 -7.73%
CCOCCn1c(=NC(=O)c2ccc3c(c2)OCCO3)sc2cc(OCC)ccc21 -13.9%
COCC(C)NC(=O)C1=CC(c2ccc3c(c2)OCO3)=NS(=O)(=O)N1C (centres undefined) -9.69%
COc1ccc(NCc2cccn2-c2nnc(N3CCC(C)CC3)s2)c(OC)c1 -5.76%
CCc1ccc(NC(=O)C(=O)NCCc2sc(-c3ccc(C)cc3)nc2C)cc1 -18.1%
O=C(CSc1nc2c(c(=O)[nH]1)CCC2)Nc1cc(C(F)(F)F)ccc1Cl -13.1%
CSc1ccc(-c2nc3cc(C)ccn3c2Nc2ccc(C)cc2)cc1 -13.8%
Cc1cccc(-c2nc(S(=O)(=O)c3ccccc3)c(N3CCN(c4ccccc4)CC3)o2)c1 -6.44%
CCc1cccc(NC(=O)CSc2nccn2C)c1 -9.33%
Cc1ccc(C(=O)c2cn(Cc3ccccc3)c3cc4c(cc3c2=O)OCCO4)cc1 -10.6%
COc1c(Cl)cc(Cl)cc1C(=O)Nc1cccc2cccnc12 -17.8%

— PubChem BioAssay AID1159614 (National Center for Advancing Translational Sciences (NCATS), 2016)
